Source: PubChem BioAssay AID1963576 (National Center for Advancing Translational Sciences (NCATS), 2024)
Out of some 46,000 compounds screened, about 60 (0.1%) were called active. Not shown: some 3% with an inconclusive outcome. Calls come from the whole dose curve; as a rule, active = well fitted inhibition curve with a large enough effect; inconclusive = small, poorly fitted or top-dose-only effect; inactive = no such curve, though single readings can be large or run the other way. Some of the results follow.

Assay: Primary qHTS assay for Inhibitors of ovarian cancer metastasis using an organotypic tumor microenvironment (TME) model.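 For activity change, negative = inhibition: plate controls were DMSO wells for no effect and tomatine positive control wells for full effect.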 Note: nearly all actives have a fitted effect of over 65% in size.
Conditions: SKOV3ip1-GFP adhesion/invasion on 3D omental model, fluorescence; series mostly up to 45.8 µM; activity change, negative = inhibition: at the top concentration
Procedure, shortened: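 Adhesion/invasion was scored as fixed GFP-labeled SKOV3ip1 cell counts (488/509 nm), normalized to DMSO and tomatine controls. Cancer cells in serum-free medium, with four compound doses (0.36-46 umol/L), sat 2 hr at RT then 16 hr at 37 C on a 48 hr fibroblast/mesothelial/ECM culture.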

Activity change, negative = inhibition, inactive:
CCOCCn1c(=O)c2c(nc3n2CCN3c2ccc(C)c(C)c2)n(C)c1=O -11.4%
COc1cccc(N2CCN(C(=O)C3CCN(S(=O)(=O)c4cn(C)cn4)CC3)CC2)c1 -4.14%
Cc1cc2c(cc1S(=O)(=O)NCc1ccccc1Cl)OCC(=O)N2 -1.15%
CCc1ccc(-n2nc(CO)c(C(=O)NCc3cccs3)n2)cc1 6.97%
COc1ccc(OCC2c3cc(OC)c(OC)cc3CCN2C(=O)c2c(F)cccc2F)cc1 (configuration not stated) -9.68%
CCCCNC(=O)c1cn(C)c2ccc(S(=O)(=O)N3CCCC3)cc2c1=O 9.33%
COc1ccc(-c2nc3ccc(Cl)cn3c2Nc2ccc(C)cc2)cc1 -0.191%
COc1ccc(N2CC(NC(=O)C(=O)c3c(C)[nH]c4ccccc34)CC2=O)cc1 (configuration not stated) 4.37%
COc1cc(OC)c(NC(=O)Cn2cnc3sc(C)c(S(=O)(=O)N4CCC(C)CC4)c3c2=O)cc1Cl 6.17%
O=C(CSc1nc(=O)n(Cc2ccco2)c2c1CCC2)NCc1ccc(Cl)cc1 -15.4%
CCN(Cc1ccccc1)C(=O)Cn1c(=O)n(-c2ccc(Cl)c(Cl)c2)c(=O)c2c(C)c(C(=O)N(C)C)sc21 -4.23%
COc1ccccc1CNC(=O)CSc1nc(=O)[nH]c2c1CCCC2 20.4%
Cc1ccc(C(=O)N2CCN(Cc3cc(=O)n4nc(-c5ccccc5)sc4n3)CC2)cc1 -1.48%
Cc1cc(NC(=O)Nc2nnc(N3CCCCC3)s2)ccc1Br -3.2%
Cc1cc(C)n(-c2nc3ccccc3nc2Nc2cc(Cl)ccc2C)n1 -1.18%
Cc1cc(C)c2nc(N(Cc3cccnc3)C(=O)Cc3ccccc3)sc2c1 14.8%
COc1ccc(C(=O)Nc2ccc3oc(-c4cccnc4)nc3c2)cc1OC 15.5%
COCCn1c(=O)[nH]c2cc(C(=O)Nc3ccc(OC)cc3)ccc2c1=O -8.31%
COc1ccc(CCNC(=O)c2cc(=O)c3ccc(C)cc3o2)cc1OC -0.598%
CCn1c2ccccc2c2cc(NC(=O)COc3cc(C)ccc3C)ccc21 6.59%
O=C(COC(=O)c1cccc(NC(=O)c2ccc(Br)cc2)c1)c1ccc(Cl)cc1 -19.2%
CC(C)(C)c1ccc(OCCOCCn2c(-c3ccc(Cl)cc3)nc3ccccc3c2=O)cc1 -8.65%
CC(C)Oc1ccc(CNC(=O)C2CCN(Cc3cc4ccccc4n3Cc3ccccc3)CC2)cc1 -2.41%
CCc1cnc2c(c1SCC(=O)Nc1ccc(C(=O)OC)cc1)c(=O)n(C)c(=O)n2C -5.84%
Cc1ccc2c(c1)cc(C(=O)NCc1ccccc1C)n2C 3.48%
Cc1cc(C)c(S(=O)(=O)NCC(c2ccco2)S(=O)(=O)c2cccs2)c(C)c1 (configuration not stated) -3.84%
CC1CCc2onc(C(=O)N3CCN(c4cccc(Cl)c4)CC3)c2C1 (configuration not stated) -15.3%
CC(C)Oc1ccc(CNC(=O)c2ccc(NC(=O)N3CC(C)Sc4ccccc43)cc2)cc1 (configuration not stated) -4.61%
O=C(/C=C/c1ccccc1)Nc1nc2n(n1)C(c1ccc(F)cc1)C=C(c1ccccc1)N2 (configuration not stated) -0.574%
CCc1nn2c(=O)c(S(=O)(=O)Nc3ccc(C)c(C)c3)c(C)nc2s1 9.48%
CCOCCc1nn2c(=O)cc(COC(=O)c3ccc(NC(=O)C(C)(C)C)cc3)nc2s1 -6.58%
COc1ccc(NC(=O)c2nc(-c3ccc(C)cc3)n3c2CCCCC3)c(OC)c1 9.32%
CCc1cccc(C)c1NC(=O)c1cnn(-c2ccc(OC)cc2)c1C1CCN(C(=O)OC(C)(C)C)CC1 -8.46%
Cc1ccc(SCC(=O)Nc2ccc3oc(-c4ccccc4F)nc3c2)cc1 -1.11%
CCOC(=O)c1ccccc1NC(=O)c1cnc(N2CCOCC2)c2ccccc12 -18.7%
O=C(NCc1cccs1)c1ccc(CSc2nc3ccncc3n2Cc2ccccc2F)cc1 -9.66%
CCC(=O)N1CCc2cc(S(=O)(=O)NC(C(=O)NCCc3cccc(C)c3)C(C)C)ccc21 (configuration not stated) -5.33%
CN(Cc1ccco1)S(=O)(=O)c1nnc(NC(=O)c2ccccc2Cl)s1 7.36%
CCN(CC)c1nn2c(=O)c(C(=O)NCc3ccc(N(C)C)cc3)cnc2s1 6.53%
Cc1nn(C)c(C)c1CCNC(=O)Nc1ccccc1C(F)(F)F -7.53%
CCc1ccccc1N(C)C(=O)c1sc2nc3n(c(=O)c2c1C)CCCCC3 -0.909%
COc1ccccc1CNC(=O)C1CCN(S(=O)(=O)c2cn(C)cn2)CC1 -0.253%
O=C(NCCc1csc(-c2ccc(F)cc2)n1)c1cccc(F)c1 -3.95%
Cc1ccc(C2c3[nH]c4ccccc4c3CCN2C(=O)CSCc2ccc(F)cc2)cc1 (configuration not stated) 2.2%
COc1cc(Cl)c(C)cc1Nc1nc2ccccc2n2cnnc12 0.637%
CC1CCCN(CCCNC(=O)c2cc3c(Cl)nc4ccccc4c3s2)C1 (configuration not stated) -6.12%
COc1ccc(C(=O)CCC(=O)Nc2ccc(C)c(Cl)c2)cc1 -24.2%
COCc1cc(C)nc2sc3c(=O)n(-c4ccccc4C(F)(F)F)nnc3c12 -3.41%
COc1ccc(CNC(=O)C2CCN(S(=O)(=O)c3ccc4c(c3)CCCN4C(C)=O)CC2)cc1 -6.71%
Cc1cccc(C)c1-n1ncc(C(=O)N2CCN(c3ncccn3)CC2)c1C1CCN(C(=O)OC(C)(C)C)CC1 7.4%

outcome, inactive:
Cc1cc(C)cc(NC(=O)COCc2cc(-c3ccc4c(c3)OCO4)on2)c1
COc1cccc(-c2nc(CS(=O)(=O)CC(=O)NCCc3ccc(Cl)cc3)c(C)o2)c1
Cc1ccc(NC(=O)CCn2c(=O)c3cccn3c3ccccc32)cc1Cl
CCOc1ccc(CNC(=O)c2ccc3c(c2)nc2n3CCCCC2)cc1
CCCCCn1c(=O)[nH]c2cc(C(=O)NC(C)CC)ccc2c1=O (configuration not stated)
Cc1cccc(Cn2c(COc3ccccc3)nc3ccccc32)c1
CCOC(=O)CNC(=O)c1cc2c(=O)n3cccc(C)c3nc2n1C
Cc1cc2oc(C(=O)N(Cc3ccco3)Cc3ccccc3Cl)c(C)c2cc1C
COc1ccc(CNC(=O)Cn2c(-c3ccccc3)cc(C(C)=O)c2C)cc1OC
COc1ccc(N2CC(NC(=O)/C=C\c3ccccc3)CC2=O)cc1OC (configuration not stated)
Cc1ccc(C)c(CSc2nnc3[nH]c(=O)cc(-c4ccccc4)n23)c1
CCc1ccccc1NC(=O)c1sc(-n2nc(C)c(Cc3ccccc3)c2C)nc1C
